Among the data in the supplement of paper PMC10681739 are RUNX1 binding intensity values, retold here.

± gives the standard deviation of the averaged measurements. Over roughly 4,000 sequences, “arbitrary fluorescence units” has its median near 830; the highest 2% begin near 6,500. Most of the strongest results are missing from this list.
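Also: Full-length recombinant human RUNX1 bound to double-stranded DNA microarray spots, detected with an Alexa488-labelled secondary antibody after the anti-RUNX1 primary, read as scanned spot fluorescence.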

Sequence of UniProt Q01196 (Q01196 whole entry): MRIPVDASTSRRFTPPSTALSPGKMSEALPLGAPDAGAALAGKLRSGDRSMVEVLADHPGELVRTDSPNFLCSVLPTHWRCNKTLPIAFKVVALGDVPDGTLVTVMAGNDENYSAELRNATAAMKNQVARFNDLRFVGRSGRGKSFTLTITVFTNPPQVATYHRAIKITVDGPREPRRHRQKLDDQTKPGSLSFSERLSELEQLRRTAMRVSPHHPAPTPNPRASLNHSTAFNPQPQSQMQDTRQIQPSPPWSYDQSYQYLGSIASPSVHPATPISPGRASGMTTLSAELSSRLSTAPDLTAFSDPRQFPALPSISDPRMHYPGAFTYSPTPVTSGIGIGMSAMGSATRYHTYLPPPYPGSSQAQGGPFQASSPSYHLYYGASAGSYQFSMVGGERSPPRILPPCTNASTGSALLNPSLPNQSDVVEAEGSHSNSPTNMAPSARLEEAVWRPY

The test has as its target RUNX1 (UniProt Q01196). Nature of the test: RUNX1 binding intensity (PBM fluorescence), RUNX1 alone (arbitrary fluorescence units); higher = stronger binding. As to conditions: RUNX1 concentration 2 nM; ETS1 concentration 0 nM. How it is done:
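gcPBM on 36-bp genomic-derived probes (partner site mutated) containing one RUNX1 site and no ETS1 site. Recombinant human RUNX1 (2 nM) was incubated alone or with ETS1 (25 nM) and detected by anti-RUNX1 antibody fluorescence. Values are medians over 4 replicate spots (not normalised). The probes sit in constant array flanks that are not printed.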
In the case of AACACCCGATTCCCGGTTCTGCCCCCTACCGCAGCT, the RUNX1 binding intensity amounted to 1130.
GTGTTTACCACATGCGGGCCCTCAGCAAGTGCATCA yielded an RUNX1 binding intensity of 985.
Regarding GCAAAGTTGTGGGAGCCCTACTGCCTGCGGAGCCCC, the RUNX1 binding intensity is 731.
In the case of AGCAACCACGCACGACTCTGCTCCGTTCTGGTCCGA, the RUNX1 binding intensity is 805.
Sequence GGATTCAGGTTAGCACGTCGCGTTCTGCCGCAGCAG returned an RUNX1 binding intensity of 716.
Take TAAGAAGCTCCAGCCGCAGGCACGGAGATAAACAGC: the RUNX1 binding intensity amounted to 722.
Regarding CTCTGTCAGGCAAATACACTTGGATGTGGTGACAGA, the RUNX1 binding intensity stood at 671.
The sequence GCCGTAGCTGAAGAGTGTTCGTGGTCATGTGACGCC showed an RUNX1 binding intensity of 695.
The value for GCGGAGGGAAGCTGAAATACTTGCGGTGGGGGCGAC was 919.
ACTCACCTCCGTTTAGCTTATCAACCACCAAGAGAC: the RUNX1 binding intensity is 1350.
On to CTTCACTATGCATCGTGTACTGCAACCACACCAAAC, for which the RUNX1 binding intensity amounted to 840.
For TTTGAGGTTCATGCTGTACTCAGAACACCCTGTTCT the value was 804; for CAAATACAGTGTGGTTTCACAGTAGGAGGTGGTGTT, 1070.
Sequence GCTCGCGGTGCCTCTGGGTCAGGTGAGACGGAGGTG returned an RUNX1 binding intensity of 755.
For TCTGTCACCACATCCAAGTGTATTTGCCTGACAGAG the value was 900; for CCTGTGGGCTGGGAGGCCAGGTCCTTTGCTGCCCAG, 706.
For GCAGGGCCTGCGGCGCTCGCGGCAGTGCCACGGTGC the value was 685; for TAAGACCGCTGTAGATTGTTATGTCTGGAATCCGCT, 754 ± 48.
GCACCGTGGCACTGCCGCGAGCGCCGCAGGCCCTGC: the RUNX1 binding intensity is 739.
TTGCGGGTTTTATAGCTTAACTTTTGCTTTCTGTGT returned an RUNX1 binding intensity of 976.
The value for GGCACCCCCGCATTTCTTCGAAGAGGCAATAAATAC was 846.
Sequence CTCCACCACAGGGCTGGGCTGCCAGATCCCATTCAT returned an RUNX1 binding intensity of 942.
For the sequence GCTGTCCGTTCCCGAGATGTTAATGCGGGATCTTGC, the RUNX1 binding intensity came to 812.
For ATTTGCTGCGACCCGCAGGCGCTATCAGCTGCCGGG, the RUNX1 binding intensity turned out to be 658.
The value for GGCCTGCGGGAGGGCCCGCCTTGGCTGCTCCCGCTC was 731; that for CCATGTTTCCCGCAGGCAGTCGCGTGGGAATTGACG was 806; that for AGAGGATTGTGGGCTCACAAGCCAACATGCTGACAG was 695.
The value for CTCCGCCAGCGCCCGCAGGACCCGTATGAGAGCGCA was 838.
Take TGGGGCCCGGGAGCGCTGGCGCCTTGCGGCCAGAAG: the RUNX1 binding intensity stood at 692.
TTTGTTGTGGTTGGTGAGTCAATTCATCCCTCTCGC showed an RUNX1 binding intensity of 1250.
Turning to AGGCAGCACAGCAAGTTATAACCACATGTACACTTG, the RUNX1 binding intensity came to 795.
Take AGTTGCCTGAACTCAGAGCACAGTTGTGGTGCAGAA: the RUNX1 binding intensity was 747.
In the case of AGTCGTTCCACCACCTCCCAGTCGGGTTGCGGCGGA, the RUNX1 binding intensity worked out at 866.
The value for TTCTGTGTGGTTACTTTAAATACCAAAAGGACATGT was 1570; that for CGGGGCCTGTGGTTACTACACTCCACTGCCTTATGA was 1740; that for CTGGCGCCTTGCGGCCAGAAGCCCCGAATGGACGCA was 784.
As to GTGGTGGTTTTCAGGTTGATACCGCTCCCTGAAGAT, the RUNX1 binding intensity came out at 927.
AAACTACATTGCCCAGCATCCCGCGCGCCGCAGACC: the RUNX1 binding intensity worked out at 882.
As to AGTGGATAGCACTGCCTTCTCTTACCACAGTTCCTT, the RUNX1 binding intensity was 862.
The value for CCTCAAAACCCGGCAACGCCTTGCGGGGCAGTGTGG was 793.
As to CACGTCGCGACCGCACAGGGGGACGTTCTCCCGCCA, the RUNX1 binding intensity was found to be 1080.
As for TGCACGTGACCACGGACTTTTTTTCATAGCCGCCGA, the RUNX1 binding intensity worked out at 884.
As to AACCCTTGCTGAAAGTAGATGGGGTATAAACCACAA, the RUNX1 binding intensity is 932.
CTCCGCCCACAGCAACACAGGCGCCTCCTTGTGCAG came in with an RUNX1 binding intensity of 901.
In the case of CTGCTTTGCCCGCAGCGCTCCGTAACACCCGGCTAC, the RUNX1 binding intensity came to 1280.
The sequence ACCAACCGAAAGTGATCGTGTTGTGGCCGAAGGAGG came in with an RUNX1 binding intensity of 813.
Turning to ACTTACAAAGGAGGTGACAGAACCACAGAAAAGACC, the RUNX1 binding intensity was 792.
AGTTTTTCGTCGGGCTCCCAGTGACGCCGCAGAGGT had an RUNX1 binding intensity of 838.
CAAGTTGTGCTCCCCCACAAGAGGAACTACTGGGCA showed an RUNX1 binding intensity of 799.
GCGGCCCTGATTCCTAATCACCACAGTCAGAACCGT yielded an RUNX1 binding intensity of 807 ± 11.
Consider GTAAAGAGCAACCGCTGACAGGACGGGGCCCAGCAG, for which the RUNX1 binding intensity turned out to be 741.
Sequence ATCCCACTATAGGAGGCTTCTCTGTGGTTTTGAGCC returned an RUNX1 binding intensity of 1040.
GTATTTATTGCCTCTTCGAAGAAATGCGGGGGTGCC: the RUNX1 binding intensity is 821.
In turn, CAGCAAGCAACCACAAAACCAGAGCGCAAGGAGGGA returned an RUNX1 binding intensity of 2250.
CTAGCACGAAACAGACAGACCCAGCCACAGAATCTC displayed an RUNX1 binding intensity of 900.
The sequence CTCACAACTCGCGTACGGCGGAGACCACAATTCCCG yielded an RUNX1 binding intensity of 887.
On to TCTGGGACATGAAAGACTTGTGGTTACTGCTGTTGA, for which the RUNX1 binding intensity was 1210.
As for CCTCATTTACGGGCTGTTTGCGCGCAAGCCCACATC, the RUNX1 binding intensity is 876.
Sequence GAGGACGCGAAAGTCCTTCTTGCGGGGCGGAGCTAG came in with an RUNX1 binding intensity of 699.
Regarding TCAGGGCCACAAGCTTGGGGCTGCTCCCTGGAACTG, the RUNX1 binding intensity worked out at 695.
In turn, AAACCAACCGCAGGGAGATATAATATCTCTTCATGT yielded an RUNX1 binding intensity of 2010.
Turning to AGCTACCACAGCCCAGGCCAGAGCATGAAGGGTAGA, the RUNX1 binding intensity was 788.
CACGCCTGCTGAAGATGAAAACCACACGTCATGCAG yielded an RUNX1 binding intensity of 1010.
